Counter-ions that a name gives are not always drawn. ± gives the standard deviation of the averaged measurements. Whole data set: some 2,600 compounds, median “MBP+ mature oligodendrocyte number relative to DMSO vehicle control” near -0.34, cut for the highest 2% near 13. This is one part of the list.
tested on: jimpy (Plp1 jimpy) mouse iPSC-derived oligodendrocyte progenitor cells; test: MBP+ mature oligodendrocyte number relative to DMSO vehicle control (SDs above negative control mean); higher = more surviving jimpy oligodendrocytes (rescue); conditions: 10 µM; 3 days
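Note: 10 µM single dose with 3-day oligodendrocyte differentiation.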

| SMILES | MBP+ mature oligodendrocyte number |
| --- | --- |
| CN1C(=O)CCS(=O)(=O)C1c1ccc(Cl)cc1 (stereo not drawn) [Chlormezanone] | -0.269 ± 0.61 |
| c1ccc2c(c1)sc1ccccc12 [Dibenzothiophene] | 4.55 |
| O=P1(N(CCCl)CCCl)NCCCO1 (stereo not drawn) [Cyclophosphamide monohydrate] | -1.53 |
| O=C(O)Cc1cnc[nH]1 [Imidazole-4-acetic acid hydrochloride] | -2.27 |
| O=C(O)[C@@H]1CCN1 [L-azetidine-2-carboxylic acid] | -0.865 |
| COc1ccc2c(c1OC)C(=O)OC2C1c2cc3c(cc2CCN1C)OCO3 (single isomer, unassigned; (+)) [(+)-Hydrastine] | 1.13 |
| O=C1C=CC(=O)C=C1 [p-Benzoquinone] | -2.36 |
| CC1=NN=C(c2ccc(N)cc2)c2cc3c(cc2C1)OCO3 | 2.44 |
| C[C@]12C/C(=C/O)C(=O)C[C@@H]1CC[C@@H]1[C@@H]2CC[C@@]2(C)[C@H]1CC[C@]2(C)O [Oxymetholone] | -0.945 |
| C[C@H]1CNCCc2ccc(Cl)cc21 [Lorcaserin HCl] | 5.9 |
| C=C1C[C@@H]2[C@H](CC[C@]3(C)C(=O)CC[C@@H]23)[C@@]2(C)C=CC(=O)C=C12 [Exemestane] | -3.47 |
| CC(=O)c1c(O)c(C)c(O)c(Cc2c(O)c3c(c(C(=O)/C=C/c4ccccc4)c2O)OC(C)(C)C=C3)c1O [Rottlerin] | -1.5 |
| CC(=O)[C@H]1CC[C@H]2[C@@H]3CC[C@H]4C[C@H](O)CC[C@]4(C)[C@H]3C(=O)C[C@]12C [5alpha-Pregnan-3alpha-ol-11,20-dione] | 0.265 |
| c1ccc(C[N+]23CN4CN(CN(C4)C2)C3)cc1 [Roslin 2] | -1.53 |
| COc1ccccc1N1CCNCC1 [1-(2-Methoxyphenyl)piperazine hydrochloride] | 0.253 |
| CCCN1CCC[C@@H]2Cc3n[nH]cc3C[C@H]21 [(-)-Quinpirole hydrochloride] | -1.21 |
| CC(C)c1cccc(C(C)C)c1O [Propofol] | 0.764 |
| OCc1cnc[nH]1 [4-Imidazolemethanol hydrochloride] | 0.607 |
| O=C(O)CC[N+](=O)[O-] [3-Nitropropionic acid] | -1.66 |
| CN1C[C@H](CNC(=O)OCc2ccccc2)C[C@@H]2c3cccc4c3c(cn4C)C[C@H]21 [Metergoline] | < -3.97 |
| O=[N+]([O-])c1ncc[nH]1 [Azomycin] | 2.3 |
| C[C@]12CC[C@H](O)CC1=CC[C@@H]1[C@@H]2CC[C@]2(C)C(=O)CC[C@@H]12 [Dehydroepiandrosterone (DHEA)] | 0.283 |
| Cc1cc([C@@H]2CCCN2C)on1 [ABT-418 hydrochloride] | -0.786 |
| CC[C@@H](CO)NC(=O)[C@@H]1C=C2c3cccc4c3c(cn4C)C[C@H]2N(C)C1 [Methysergide maleate] | -0.559 |

| SMILES | MBP+ mature oligodendrocyte number |
| --- | --- |
| CC(C)C1CNC(C(=O)O)C1CC(=O)O (stereo not drawn) [Dihydrokainic acid] | 1.34 |
| COc1cc2c(c(OC)c1OC)-c1ccc(OC)c(=O)cc1[C@@H](NC(C)=O)CC2 [Colchicine] | < -3.34 |
| CC(N)C(O)c1ccc(O)c(O)c1 (single isomer, unassigned; (-)) [(-)-alpha-Methylnorepinephrine] | -0.387 |
| C[C@]12CC[C@@H](O)C[C@@H]1CC[C@@H]1[C@@H]2CC[C@]2(C)[C@@H](C(=O)CO)CC[C@@H]12 [3-alpha,21-Dihydroxy-5-alpha-pregnan-20-one] | -0.911 |
| CCCN(CCC)C1CCc2cccc(O)c2C1 (racemic) [(±)-8-Hydroxy-DPAT hydrobromide] | -0.701 |
| C/C=C(/C)C(=O)O[C@H]1C(C)=C2[C@H]([C@@H]1OC(=O)CCCCCCC)[C@@](C)(OC(C)=O)C[C@H](OC(=O)CCC)[C@@]1(O)[C@H]2OC(=O)[C@@]1(C)O [Thapsigargin] | < -3.85 |
| COc1ccc(CC2NCCc3cc(OC)c(OC)cc32)cc1OC (stereo not drawn) [Tetrahydropapaverine HCl] | 4.03 |
| c1ccc2c(c1)OCC(C1=NCCN1)O2 (stereo not drawn) [Idazoxan hydrochloride] | -0.402 |
| CC(C)(C)c1cc(C=C(C#N)C#N)cc(C(C)(C)C)c1O [Tyrphostin 9] | < -6.01 |
| Cc1cc(C(C#N)c2ccc(Cl)cc2)c(Cl)cc1NC(=O)c1cc(I)cc(I)c1O (stereo not drawn) [Closantel] | 1.84 |
| Cc1cc(C(C#N)c2ccc(Cl)cc2)c(Cl)cc1NC(=O)c1cc(I)cc(I)c1O (stereo not drawn) [Closantel Sodium] | -0.185 |
| O=C(O)c1nn(Cc2ccc(Cl)cc2Cl)c2ccccc12 [Lonidamine] | -0.0229 ± 2.1 |
| Cc1o[nH]c(=O)c1CC(N)C(=O)O (racemic) [(±)-AMPA hydrobromide] | 1.55 |
| CCC1(C2=NCCN2)Cc2ccccc2O1 (stereo not drawn) [Efaroxan hydrochloride] | -1.22 |
| CC[C@@H](CO)NC(=O)[C@@H]1C=C2c3cccc4[nH]cc(c34)C[C@H]2N(C)C1 [Methylergonovine maleate] | -0.519 |
| CCOC(=O)c1ncn2c1[C@@H]1CCCN1C(=O)c1cc(OC)ccc1-2 | -0.245 |
| C[N+]1(C)[C@@H]2CC(OC(=O)[C@H](CO)c3ccccc3)C[C@H]1[C@@H]1O[C@@H]12 (single isomer, unassigned; (-)) [(-)-Scopolamine methyl nitrate] | 0.539 |
| COc1ccc2c(c1O)-c1cccc3c1[C@@H](C2)N(C)CC3 [R(-)-Apocodeine hydrochloride] | -1.8 |
| O=c1[nH]oc2c1CCNC2 [THIP hydrochloride] | -0.318 |
| NC(Cc1cc(O)c(O)cc1O)C(=O)O (racemic) [6-Hydroxy-DL-DOPA] | 0.0316 |
| CC(C)Oc1cccnc1N(C)C1CCN(Cc2ccccc2)CC1 | 19.1 |
| O=C(CCCN1CCC2(CC1)C(=O)NCN2c1ccccc1)c1ccc(F)cc1 [Spiperone hydrochloride] | -2.71 |
| CCCN(CCC)C1CCc2ccc(O)cc2C1 (racemic) [(±)-7-Hydroxy-DPAT hydrobromide] | -0.701 |
| COC[C@H]1OC(=O)c2coc3c2[C@@]1(C)C1=C(C3=O)C2CCC(=O)[C@@]2(C)C[C@H]1OC(C)=O (stereo partly drawn) [Wortmannin from Penicillium funiculosum] | -0.64 |
